Drawing on publication PMC3830196, “Calmodulin-like protein AtCML3 mediates dimerization of peroxisomal processing protease AtDEG15 and contributes to normal peroxisome metabolism” (Plant Molecular Biology, 2013), this text covers binding for three molecules.

No constants are given. Whether binding was seen depends on the method and setting. Some results given as binding are weak or reduced against the parent protein; the word gives no strength. For part of these data: Sequences can lack the tags named with a protein.

Test [1] addresses AtDEG15 lacking the N-terminal 25 amino acids (yeast fusion) (Arabidopsis thaliana) (UniProt Q8VZD4). The test is described as follows: yeast three-hybrid; full length AtDEG15 in pBridge, AtDEG15 constructs in pGAD424, AtCML3 from the second multiple cloning site of pBridge expressed (0 mM Met); lacZ reporter, Miller units; S. cerevisiae AH109.
In test [2] the target is AtDEG15 full length (yeast two-hybrid / three-hybrid fusion) (Arabidopsis thaliana) (UniProt Q8VZD4). The description is as above.
Test [3] addresses T1, AtCML3 full length (yeast two-hybrid fusion) (Arabidopsis thaliana) (UniProt Q9SRR7).
T1 sequence: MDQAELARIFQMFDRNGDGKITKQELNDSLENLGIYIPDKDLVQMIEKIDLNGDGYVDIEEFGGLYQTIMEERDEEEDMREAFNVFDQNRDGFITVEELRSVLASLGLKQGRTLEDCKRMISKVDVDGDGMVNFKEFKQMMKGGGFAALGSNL
The test is described as follows: two-hybrid; Matchmaker GAL4 system, fusions in pBridge (DNA-binding domain) and pGAD424 (activation domain), S. cerevisiae AH109; HIS3 reporter (growth on His-free medium) and lacZ reporter (beta-galactosidase, Miller units).

The target in test [4] is AtDEG15N, the 373 amino acids long N-terminal domain of AtDEG15 (yeast fusion) (Arabidopsis thaliana) (UniProt Q8VZD4). The test is described as above.
Test [5] deals with AtDEG15 lacking the first 75 amino acids (yeast fusion) (Arabidopsis thaliana) (UniProt Q8VZD4). The description is as above.
For test [6], the target named is AtDEG15 lacking the first 50 amino acids (yeast fusion) (Arabidopsis thaliana) (UniProt Q8VZD4). Described as above.
Test [7] has as its target AtDEG15 lacking the N-terminal 25 amino acids (yeast fusion) (Arabidopsis thaliana) (UniProt Q8VZD4). The description is as above.
Test [8] addresses AtDEG15 full length (yeast two-hybrid / three-hybrid fusion) (Arabidopsis thaliana) (UniProt Q8VZD4). Described as above.
Test [9] has as its target AtDEG15 lacking the first 100 amino acids (yeast fusion) (Arabidopsis thaliana) (UniProt Q8VZD4). The test is described as above.

For “AtDEG15 lacking the N-terminal 25 amino acids (yeast fusion) (from UniProt Q8VZD4 26-709) (domain or fragment)”, the binding result in test [1] and in test [2] was “no binding” in each case.

In the case of “AtDEG15 full length (yeast two-hybrid / three-hybrid fusion) (from UniProt Q8VZD4 1-709) (enzyme)”, the binding entry in [3] was “binds”.

B1: AtCML3 full length (yeast two-hybrid fusion) (natural protein, Arabidopsis thaliana, UniProt Q9SRR7 1-153, looked up)
chain: T1 sequence
notes: AtCML3, calmodulin-like protein of Arabidopsis thaliana (At3g07490); full-length coding region; Cloned both into pBridge and pGAD424; also called AtCML3_pGAD424; AtCML3_pBridge; source: yeast two-hybrid fusion (S. cerevisiae AH109)
B1: the binding entry in test [4] is on record as “binds”; in test [5], “no binding”; in [6], “no binding”; in test [7], “no binding”; in [8] it was “binds”; in test [9], “no binding”.
